Assay results reported in publication PMC10726135.
This is one part of the list. At the low end of the ranking the order means little. The protein was read in a cell extract, so binding may be indirect.

These sequences were tested against T1, HNF4alpha2 (COS-7 nuclear extract) (UniProt P41235) (assay: protein-binding microarray). Conditions: COS-7 nuclear extract on double-stranded Agilent 4x180k PBM; binding buffer, salt, pH and temperature not given; high values mean tight binding; double strand, one strand shown; sequences stand for … in …GCCTAGGGAGATTAGAGTATCGGTCGA.
T1 sequence: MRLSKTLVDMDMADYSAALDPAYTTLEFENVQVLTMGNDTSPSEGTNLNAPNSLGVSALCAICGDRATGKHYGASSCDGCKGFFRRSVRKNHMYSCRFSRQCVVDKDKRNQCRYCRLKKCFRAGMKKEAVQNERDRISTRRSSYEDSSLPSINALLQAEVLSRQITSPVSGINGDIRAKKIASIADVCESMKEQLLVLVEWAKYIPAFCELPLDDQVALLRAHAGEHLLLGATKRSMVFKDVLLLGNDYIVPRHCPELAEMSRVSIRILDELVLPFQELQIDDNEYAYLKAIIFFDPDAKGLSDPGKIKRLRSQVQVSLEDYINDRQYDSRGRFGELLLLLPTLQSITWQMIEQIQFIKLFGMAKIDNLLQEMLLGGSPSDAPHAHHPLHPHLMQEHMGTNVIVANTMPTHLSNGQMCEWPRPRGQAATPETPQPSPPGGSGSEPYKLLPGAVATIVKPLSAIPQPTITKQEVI

Row | Sequence | binding signal (log2 normalized intensity)
1 | TGAAAAACACTGGATAAAGTCCATATTCTT | 2.3
2 | GATTGACTCAGGCATTCTGACCTTTGTCTC | 7.05
3 | TCTACTCCCTGTTCTTACACCTGCTCCCCT | 2.87
4 | TCGGGACAAGAGGAATGTTCATTCATTCAC | -0.0238
5 | TTCTTAGAGAGTTGGGCAAGACTCGTGAAA | 1.21
6 | TTCATCTGACTGGAAGAGCCTGCAAGGGAG | -1.06
7 | ATCTGCAGGGCAGCAGACTCAGAAAAATAT | -1.06
8 | GATTACTTGGCACTTAGCACAAGTGACTAT | -0.484
9 | TGAATTTAACCTTTGCTCTCTGAAATGAAG | 4.71
10 | CCACTCTTTTTTAGACTTTGACCTCCATAT | 7.61
11 | AAGAACAGCTTTGGTATTACATTACAACCA | -1.03
12 | CTGCTTTGGTTAATCATTAGAGATGTTCAA | 0.435
13 | CAAATACCATCCCCAGAGCCGGAGCACCAC | 1.27
14 | TTCCTGCACCCGGGCAGCCTGTGGCCAGGC | -1.21
15 | GATAAGAGGCAGTCCTGGCTTGGCCACCTA | -1.12
16 | TGCCTGGAGAGCTAGTAAGGAGCTGAGTCA | -1.28
17 | CTTTTTGATCTTGTCACATTTCAAAAGCTG | -0.486
18 | TCCTTGGCTCTCCCCACTTACTTCCTGATA | 0.385
19 | TTTCTGGGATTTGTACAAGTGATTGGATCT | 1.24
20 | CCTTTGCCCTCCAAACTGAGAGATTTTTTC | 0.459
21 | GAGCTTTTACCTCAAATAAAGGTCAGAGTC | 1.79
22 | ATCTATTATTAGGTACAAACATACTTAGGA | 0.909
23 | TCCTGTAGAATGACCCCCTGGGCTCCAATC | 3.22
24 | TCTCTCTCTCTCGTTTTTTTTTTCCCTGAG | 1.49

Row | Sequence | binding signal (log2 normalized intensity)
25 | GGCATTATTAGCCACAACTGAGTATTTAGC | -0.728
26 | ATGATGGCCAGGGAGTACACCCCTCACTCC | -1.09
27 | AAGGGAACCCTAATCCACATGCTATTATTT | -1.17
28 | TTGCTTATAGCTCAAAGTCCACCAACTCTG | 4.11
29 | GTAATTAATCTGATCGCCCTCCCCCAGAGA | 4.99
30 | TGATTAGAACATTAAGTCCAAATGCTGGTT | 1.2
31 | TTAGACAGTGCTTCCAAAGGACAGGGTTTC | 0.777
32 | CAGAGACCTTTGCTCACGTTTTCCTGCTGA | 1.13
33 | TAACAATTCTTTCTGATAAGAGCATTTTTG | 0.953
34 | GAGCCCAGCAAACCTATAGGACCAGGCTGT | -1.15
35 | TTATACAGCCTTGGAAGACACAGATGGTGT | 1.16
36 | AGGTGCCTGGGATCGAAAGGACATTGTCCA | 1.98
37 | TGGGGCTTAGATAGCAGTGTGAGTGTCAGA | 1.23
38 | AAAGGTGATCTGCTGGAATGAAGACTCACA | -1.15
39 | CACAAGTCCTCACAATAATGAGAAACGCCT | -1.11
40 | AACAAAGAGAAAGGGTCAATGTGATCAGGT | 1.77
41 | GCACAGCTGATTGCTCAACCCAAAGCATGT | -1.1
42 | ACCTTGCAGGCCAGGGAGTGCAGCTGCAGG | -0.904
43 | TCCTTCCCTCAGCAACTGCAAGGCTGACCC | 3.61
44 | TGGGCACTGTCCTAGGTGCTGAAGATGCAA | -0.724
45 | ACTTGTTTTTTCAGGTGTTGCTCTCTTGCC | 1.73
46 | AAGTGCTTGTTCCCTCCATCCAAGGCCCGC | -0.635
47 | AAGTGGTTGTAGCAGTTCACACTCCCACCA | -1.08
